Results on 29 compounds are retold here after PubChem BioAssay AID1745853 (National Center for Advancing Translational Sciences (NCATS), 2022).

Experiment in all cases: Primary Screen for Target Class Profiling of Small Molecule Inhibitors of Methyltransferases
For assay [1], the target named is Glycine N-methyltransferase (Homo sapiens) (UniProt Q14749). To be noted: purified enzyme, MTase-Glo SAH luminescence; measured here: GNMT inhibition; at 40 µM; stronger effect = lower value. The method in brief:
(§1)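 Each enzyme was assayed with SAM and its substrate. SAH formation detected by MTase-Glo luminescence; single-point 40 uM screen[…].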

Assay [2] has as its target Guanidinoacetate N-methyltransferase (Homo sapiens) (UniProt Q14353). Conditions: purified enzyme, MTase-Glo SAH luminescence; measured here: GAMT inhibition; at 40 µM; stronger effect = lower value. The method in brief:
as §1

In assay [3] the target is Histamine N-methyltransferase (Homo sapiens) (UniProt P50135). Conditions: purified enzyme, MTase-Glo SAH luminescence; measured here: HNMT inhibition; at 40 µM; stronger effect = lower value. An outline of the steps:
as §1

Assay [4] concerns the target Nicotinamide N-methyltransferase (Homo sapiens) (UniProt P40261). Conditions: purified enzyme, MTase-Glo SAH luminescence; measured here: NNMT inhibition; at 40 µM; stronger effect = lower value. An outline of the steps: as §1
Assay [5] addresses Phenylethanolamine N-methyltransferase (Homo sapiens) (UniProt P11086). Conditions: purified enzyme, MTase-Glo SAH luminescence; measured here: PNMT inhibition; at 40 µM; stronger effect = lower value. The method in brief:
as §1

Structures are written as SMILES. Some of the results follow. Shown are side measurements of this screen, not its main read-out; they come without a call.
On the % scale 0 is the no-effect control and ±100 the full control effect.

In the case of `CC(=O)N[C@H]1CCN(c2ccc(C3=NOC(CN[S+](=O)([O-])C(C)C)C3)cc2F)C1` (stereo not given in full), the activity change, negative = inhibition is 0.437% in assay [1]; 2.49% in assay [2]; 5.12% in assay [3]; -7.17% in assay [4]; 1.07% in assay [5].
In the same order, the values of `O=C(CCC1CCN(S(=O)(=O)c2ccccc2)CC1)NCc1ccco1` are 4.98%, 3.05%, 15.2%, 6.24% and 12%.
The like results for `COc1ccc(N2C(=O)c3ccc(-c4ccco4)n3CC2(C)C(=O)NC2CCCC2)cc1Cl` (stereo not given) were, in that order, -16.2%, -1.34%, -4.54%, -11.8% and -10.1%.
In the same order, the values of `CN1CCN(CCN2C(=O)c3ccc(-c4ccco4)n3CC2(C)C(=O)NC2CCCCC2)CC1` (stereo not given) are -0.678%, 2.27%, 0.926%, 1.65% and -0.048%.
Turning to `COc1cccc(CNC(=O)CCCn2ccc3cc(S(=O)(=O)N4CCCC4)ccc32)c1`, the activity change, negative = inhibition in assay [1] was 8.89%; in assay [2], 1.44%; in assay [3] it was 8.84%; in assay [4], 9.91%; in assay [5], -0.637%.
In the same order, the values of `CCCCN1C(=O)c2cc(C(=O)Nc3cc(Cl)c(OC)cc3OC)nn2CC1(C)C(=O)NC1CCCC1` (stereo not given) are -1.21%, 3.09%, 1.24%, 0.682% and -0.306%.
The like results for `CN(C)c1cc(N2CCCC(NC(=O)C3CCC3)C2)ncn1` (stereo not given) were, in that order, -2%, -0.563%, -0.024%, -5.25% and 2.18%.
In the same order, the values of `CCCn1c(=O)c2ccccc2n2c(=O)n(CC(=O)Nc3ccc(C)cc3Cl)nc12` are 2.94%, 3.37%, 5.54%, -1.53% and -0.473%.
As to `COCCN1C(=O)c2cccn2CC1CNS(=O)(=O)Cc1ccccc1` (stereo not given), the activity change, negative = inhibition in assay [1] is -4.92%; in assay [2], -4.08%; in assay [3], -0.821%; in assay [4], -7.67%; in assay [5], 9.83%.
The like results for `Cc1cnc(Nc2ccc(CN3CCOCC3)cc2)nc1Nc1cccc(S(=O)(=O)NC(C)(C)C)c1` were, in that order, -37.2%, 2.5%, -29.2%, -56.3% and -13.5%.
In the same order, the values of `CC1(C(=O)NC2CCCCCC2)Cn2c(cc3sccc32)C(=O)N1Cc1ccc2c(c1)OCO2` (stereo not given) are 2.71%, 4.07%, 5.25%, -1.54% and -1.76%.
Take `CC(C)CC(=O)OC[C@H]1O[C@@](COC(=O)CC(C)C)(O[C@H]2O[C@H](CO)[C@@H](O)[C@H](O)[C@H]2OC(=O)CC(C)C)[C@@H](OC(=O)CC(C)C)[C@@H]1O`: the activity change, negative = inhibition in assay [1] was -1.23%; in assay [2] it was 7.95%; in assay [3], 8.46%; in assay [4] it was -4.51%; in assay [5], 0.604%.
In the same order, the values of `CC1CCC(NC(=O)C2(C)Cn3c(ccc3-c3ccccc3)C(=O)N2Cc2ccc(Cl)cc2)CC1` (stereo not given) are 1.36%, 0.375%, 0.785%, -2.64% and 1.78%.
The like results for `Cc1ncc2c(c1CNC(=O)Cc1ccsc1)CCN(C(=O)Cc1ccc(F)c(F)c1)C2` were, in that order, -3.62%, -4.56%, -3.56%, -1.74% and -2.4%.
In the same order, the values of `CC1OC2OC(=O)C3(C)CC4=C(CO)C5=C(CC(=O)C4(C)C(C1=O)C23)C(C)(C)OC(=O)C5` (stereo not given) are -3.88%, -3.69%, 2.46%, -15.5% and -9.28%.
With `CC(C)(C)CC(=O)N1CC[C@@H](CC(=O)O)[C@@H](CCN2CCN(c3ccccn3)CC2)C1`, the activity change, negative = inhibition in assay [1] is -0.629%; in assay [2], -5.68%; in assay [3], -2%; in assay [4] it was -5.06%; in assay [5], -2.53%.
As for `CCCC(=O)N(c1ccc(OCC)cc1)S(=O)(=O)c1ccc2c(c1)n(C)c(=O)n2C`, the activity change, negative = inhibition in assay [1] is -0.311%; in assay [2], 3.84%; in assay [3], 0.381%; in assay [4] it was -10.5%; in assay [5], 0.71%.
In the same order, the values of `CN[C@H](CNC(=O)N1CCC[C@@H]([C@@H](OCCNC(=O)OC)c2cccc(Cl)c2)C1)C[C@H]1CCCOC1` are 5.72%, 11%, 7.51%, -5.68% and 6.18%.
In the same order, the values of `COc1cc2ncnc(Nc3cccc(I)c3)c2cc1OC` are -85.9%, -47.3%, -63.5%, -54.6% and -62.7%.
The like results for `Cc1noc(C)c1[S+](=O)([O-])N1CCCC1C(=O)N1CCC(N2CCCC2=O)CC1` (stereo not given) were, in that order, -0.274%, 3.08%, 1.96%, 1.44% and -1.49%.
On to `Cc1ccccc1Cn1nc2n(CC(C)C)c(=O)c3ccc(C(=O)NC4CCCCC4)cc3n2c1=O`, for which the activity change, negative = inhibition came out at 8.99% in assay [1]; 5.82% in assay [2]; 10.9% in assay [3]; 9.28% in assay [4]; 8.75% in assay [5].
As to `Cc1ccc(Cn2c(=O)c3ccccc3n3c(=O)n(CC(=O)Nc4cc(F)ccc4F)nc23)cc1`, the activity change, negative = inhibition in assay [1] turned out to be 3.21%; in assay [2], 5.87%; in assay [3], 0.555%; in assay [4], 0.942%; in assay [5], 4.86%.
As to `NC1=NCC2c3ccccc3Cc3ccccc3N12` (stereo not given), the activity change, negative = inhibition in assay [1] was 2.59%; in assay [2], 7.46%; in assay [3], -30.3%; in assay [4] it was -15.9%; in assay [5], -4.39%.
Consider `C=CCn1c(=O)c2ccc(C(=O)NC(C)CC)cc2n2c(=O)n(CC(=O)NC(C)C)nc12` (stereo not given), for which the activity change, negative = inhibition was -1.37% in assay [1]; 3.46% in assay [2]; -3.4% in assay [3]; -9.72% in assay [4]; -4.61% in assay [5].
The like results for `Cc1ccc(CCNC(=O)Cn2c(=O)oc3cc(S(=O)(=O)NCc4ccccc4)ccc32)cc1` were, in that order, 5.11%, 0%, 2.35%, -0.541% and 0.143%.
The like results for `CC(C)OCCCn1c(=O)c2ccccc2n2c(=O)n(CC(=O)NCc3ccc(Cl)cc3)nc12` were, in that order, 5.2%, 1.51%, 7.58%, 2.01% and 4.96%.
The like results for `CC(c1ccon1)N(C)C(=O)c1csc2nc(-c3cccc(C(F)(F)F)c3)cn12` (stereo not given) were, in that order, -11.6%, -9.75%, -7.79%, -17.6% and -22.4%.
Take `Cc1ccc(NS(=O)(=O)c2ccc3[nH]c(=O)[nH]c3c2)c(Cl)c1`: the activity change, negative = inhibition in assay [1] was 2.81%; in assay [2] it was 0%; in assay [3], 2.2%; in assay [4], -6.65%; in assay [5], -14.1%.
For `Cc1cccc(N2CCN(C(=O)CCc3nnc4n(CCC(C)C)c(=O)c5ccccc5n34)CC2)c1C`, the activity change, negative = inhibition is -11.7% in assay [1]; -1.93% in assay [2]; -14.3% in assay [3]; -37.7% in assay [4]; -16% in assay [5].
